Consider 98 compounds from PubChem BioAssay AID485344 (National Center for Advancing Translational Sciences (NCATS), 2010).

Structures are written as SMILES. Hit rate of the full screen: of about 340,000 compounds, about 6,900 (2%) were called active. No stated cut-off is given here; in the data, active means inhibition above about 30%; inactive means below that, where a call was filed. Only a part is listed here, and it is no random draw. Entries without a call were filed so in the source.

One may read the inhibition as the drop in the measured response relative to a control, in per cent.

UniProt P14416, sequence (P14416 whole entry, looked up): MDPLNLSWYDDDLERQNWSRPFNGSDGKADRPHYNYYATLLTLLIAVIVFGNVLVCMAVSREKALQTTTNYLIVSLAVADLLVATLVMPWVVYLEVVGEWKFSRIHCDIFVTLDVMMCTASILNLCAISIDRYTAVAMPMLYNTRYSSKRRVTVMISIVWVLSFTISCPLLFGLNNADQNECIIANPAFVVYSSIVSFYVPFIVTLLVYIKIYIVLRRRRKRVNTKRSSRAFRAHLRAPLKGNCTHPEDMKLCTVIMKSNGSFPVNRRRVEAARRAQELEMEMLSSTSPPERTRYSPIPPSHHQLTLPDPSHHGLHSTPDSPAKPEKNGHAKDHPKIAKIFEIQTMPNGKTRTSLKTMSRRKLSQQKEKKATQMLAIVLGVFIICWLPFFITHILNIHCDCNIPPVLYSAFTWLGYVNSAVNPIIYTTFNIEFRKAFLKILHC

In the assay the target is D(2) dopamine receptor (Homo sapiens) (UniProt P14416). Description: HTS Assay for Allosteric Antagonists of the Human D2 Dopamine Receptor: Primary Screen for Antagonists. Further: 0% is about no effect. Particulars: HEK293 TREx D2 cells, calcium flux, dopamine EC80; at 10 µM; stronger effect = higher value. Put shortly:
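Inhibition of EC80 dopamine-driven calcium flux, recorded kinetically, defines activity here; cells are a tetracycline-induced HEK293 T-REx line expressing force-coupled D2.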
On to `COc1ccc(CCNS(=O)(=O)c2ccc3c(c2)c(=O)n(C)c(=O)n3C)cc1OC`, for which the inhibition was -22.7%.

On to `CCc1ccc(NC(=O)CC2C(=O)N(c3cccc(C)c3)C(=O)N2Cc2cccc(OC)c2)cc1` (stereo not drawn), for which the inhibition amounted to 16%.

As to `Cc1[nH]c(=O)[nH]c(=O)c1S(=O)(=O)Nc1cccc(Cl)c1C`, the inhibition was determined as 13.6%.

Consider `CCOc1ccc(CNC(=O)Cn2nc(C)c3nn(-c4ccc(Cl)cc4)c(C)c3c2=O)cc1`, for which the inhibition is -6.36%.

On to `CCS(=O)(=O)c1ccc2oc(SCC(=O)NCCC3=CCCCC3)nc2c1`, for which the inhibition is active: 67.5%.

Consider `Cc1oc2ncnc(N3CCCCC3)c2c1C(=O)NCC1CCN(Cc2ccccc2F)CC1`, for which the inhibition was 8.81%.

Consider `Cc1ccc(CNC(=O)c2oc3ccc(S(=O)(=O)N4CCCC(C)C4)cc3c2C)cc1` (stereo not drawn), for which the inhibition is -8.2%.

For the compound `CCC(=O)NNc1ncnc2c1cnn2C`, the inhibition is active: 47.6%.

Consider `COc1ccccc1NC(=O)c1sc2nc(-c3cc4cc(Cl)ccc4oc3=O)[nH]c(=O)c2c1C`, for which the inhibition is -10.2%.

Turning to `COc1ccc(NC(=O)C2=C(C)Nc3nc(SCc4ccc(C)cc4C)nn3C2c2cccc(OC)c2OC)cc1` (stereo not drawn), the inhibition worked out at 4.25%.

`Cc1cc(-c2ccc(S(=O)(=O)Nc3ccccc3C)cc2)on1`: the inhibition was 5.92%.

`O=C(Nc1ccc(F)cc1)C1CCN(c2nc3ccccc3nc2C(F)(F)F)CC1`: the inhibition is -12%.

With `COc1ccc(-c2noc(CC(=O)N(C)c3ccccc3F)n2)cc1`, the inhibition was -14.6%.

Consider `CCn1c(SC)nc2c([nH]c3ccccc32)c1=O`, for which the inhibition amounted to 4.48%.

Regarding `COc1ccc(CNC(=O)c2ccc3c(c2)N=C(C)c2c(C)ccc(C)c2S3)cc1`, the inhibition turned out to be 11.2%.

Regarding `Cc1cc(C)cc(NC(=O)CC(C)n2nc(C)cc2C)c1` (stereo not drawn), the inhibition amounted to 5.24%.

`CCN(CC)c1ccc(NC(=O)CN2CCN(S(=O)(=O)c3ccc(C(C)C)cc3)CC2)cc1`: the inhibition was -11%.

As for `O=C(Cn1ccc2cc(S(=O)(=O)N3CCCC3)ccc21)NCc1ccc(Cl)cc1`, the inhibition was -13.3%.

Consider `COc1cc(NC(=O)Cn2c(=O)n(Cc3ccccc3)c(=O)c3oc4ccccc4c32)cc(OC)c1`, for which the inhibition is 4.23%.

`CCOC(=O)c1c(S(=O)(=O)N2CCC(C(=O)Nc3ccc(C)cn3)CC2)c(C)n(C)c1C`: the inhibition came out at 2.33%.

For the compound `COc1ccc(-n2cc(C(=O)NCCc3ccc(C)cc3)c3ccccc3c2=O)cc1`, the inhibition is -9.4%.

`CCOC(=O)C1(CCc2ccccc2)CCN(Cc2c(O)cccc2OC)CC1`: the inhibition is active: 36.7%.

Take `CC1CCCCN1C(=O)CSc1nc2ccccc2nc1Cc1ccccc1` (stereo not drawn): the inhibition is -11.4%.

For `COC(=O)c1ccc(C2CC(=O)Nc3c2c(C)nn3-c2nc(C)cc(C)n2)cc1` (stereo not drawn), the inhibition came to 10.4%.

In the case of `CCOc1ccc(N2C(=O)c3[nH]nc(-c4ccccc4)c3C2c2ccc(O)c(OC)c2)cc1` (stereo not drawn), the inhibition was -6.89%.

Take `Cc1nc(N2CCOCC2)c2c(C(=O)N3CCN(c4cc(Cl)ccc4C)CC3)c(C)oc2n1`: the inhibition worked out at 13.3%.

`CCOc1c(CC2C(=O)Nc3ccc(Br)cc32)cccc1OC` (stereo not drawn): the inhibition was found to be 4.94%.

For the compound `COc1ccc(CNC(=O)C2CCCCN2S(=O)(=O)c2ccc(F)cc2)cc1` (stereo not drawn), the inhibition is 13.4%.

Consider `O=C(CN1C(=O)C2CCCCN2c2ccc(C(=O)N3CCCC3)cc21)NCc1ccc(F)cc1` (stereo not drawn), for which the inhibition was 20.1%.

For `CCOc1ccccc1CNc1ncnc2onc(-c3ccc(F)cc3)c12`, the inhibition was -8.07%.

`CCCNC(=O)CN1C(=O)COc2ccc(S(=O)(=O)N3CCCC3)cc21`: the inhibition is -16.8%.

For `CCN1CCC(N(Cc2ccc(F)cc2)C(=O)Nc2cc(C)ccc2C)CC1`, the inhibition is -2.05%.

As for `CC1CCN(CC(=O)N2CCCc3c2c(=O)oc2ccc(OCc4ccccc4)cc32)CC1`, the inhibition was 3.31%.

For the compound `CC1(C(=O)Nc2cccc(C(F)(F)F)c2)Cc2ccccc2C(=O)O1` (stereo not drawn), the inhibition is -0.388%.

`COc1cccc(CN2CCN(C(=O)c3ccco3)CC2)c1`: the inhibition is active: 81.9%.

Turning to `COc1ccc(C(c2c(C)n(C)n(-c3ccccc3)c2=O)c2c(C)n(C)n(-c3ccccc3)c2=O)cc1O`, the inhibition is -7.45%.

For the compound `Cc1ccc(N2CC(NC(=O)Cc3cccs3)CC2=O)cc1` (stereo not drawn), the inhibition was -0.0495%.

In the case of `CCOc1cccc2sc(N(Cc3cccnc3)C(=O)c3ccco3)nc12`, the inhibition is -13.5%.

On to `COc1cc(OC)c(NC(=O)Nc2nnc(N(C)C3CCCCC3)s2)cc1Cl`, for which the inhibition was -16.8%.

`CC1=C(C(=O)Nc2c(C)cc(C)cc2C)C2(CCN(C(C)C)CC2)OC1=O`: the inhibition is -13.1%.

Take `COc1ccc(CCNC(=O)c2cnc3sc(N4CCCCCC4)nn3c2=O)cc1OC`: the inhibition came out at 0.38%.

As for `CCOCCCNC(=O)C(c1ccc(OC)cc1)N(Cc1cccs1)C(=O)c1ccccc1O` (stereo not drawn), the inhibition was 3.2%.

Consider `CC(C)CCN1C(=O)N(c2ccccc2)C(=O)C1CC(=O)Nc1ccc(Cl)cc1` (stereo not drawn), for which the inhibition was -3.27%.

For the compound `Cc1ccc(Sc2ccc(N3CCCC(C(=O)Nc4ccc(Cl)cc4)C3)nn2)cc1` (stereo not drawn), the inhibition was 14.1%.

For the compound `CC(C)NC(=O)CSc1nc2ccccc2nc1N1CCCCC1`, the inhibition came out at 20.9%.

Consider `O=C(NC1CCCC1)c1ccc2nc(-c3ccco3)c(-c3ccco3)nc2c1`, for which the inhibition was active: 33.3%.

As to `CCOc1ccc(C(=O)NCCc2sc(-c3ccc(C)cc3)nc2C)cc1`, the inhibition was -13%.

On to `Cc1ccccc1OCCC(=O)N1CCN(S(=O)(=O)c2ccc(Br)cc2)CC1`, for which the inhibition is active: 54.7%.

In the case of `Cc1ccc(CCNC(=O)c2ccc(CS(=O)(=O)c3ccc(Br)cc3)o2)cc1`, the inhibition is 27.7%.

As to `Cc1ccc2c(CC(=O)N3CCN(c4cccc(Cl)c4)CC3)coc2c1`, the inhibition was determined as 11.7%.

With `CCCCNc1ccc(-c2nc(-c3ccccc3)no2)cc1[N+](=O)[O-]`, the inhibition was -0.0967%.

On to `CSc1ncc(Cl)c(C(=O)NCc2ccc(C)cc2)n1`, for which the inhibition came out at 14.7%.

In the case of `COc1ccc(C2C(=O)N(C3CCC(C)CC3)CC(=O)N2Cc2ccc(C)cc2)cc1OC` (stereo not drawn), the inhibition is 12.8%.

`O=S(=O)(Nc1ccc(F)c(C(F)(F)F)c1)c1ccc(N2CCCCS2(=O)=O)cc1`: the inhibition is -5.66%.

Regarding `COc1ccc(OC)c(CNS(=O)(=O)c2c(C(=O)N3CCC(C)CC3)c(C)n(C)c2C)c1`, the inhibition was 18.7%.

With `Cc1cc(C)cc(NC(=O)Cn2nnc(C(=O)NCCc3ccccc3)c2N)c1`, the inhibition amounted to 25.5%.

With `NC(=O)CSc1nc2ccc(NC(=O)COc3ccccc3)cc2s1`, the inhibition amounted to 20.5%.

As for `CC1CCC(NC(=O)c2ccc3c(c2)N(Cc2ccccc2F)C(=O)c2ccccc2S3)CC1` (stereo not drawn), the inhibition came to 18.8%.

Regarding `CCCn1c(=N)c(C(=O)NC2CCCC2)cc2c(=O)n3cc(C)ccc3nc21`, the inhibition amounted to 9.41%.

In the case of `c1ccc(-c2cc(-c3ccccc3)c3c(n2)-c2ccccc2OC3)cc1`, the inhibition turned out to be 8.89%.

On to `Cc1nc2ccc(S(=O)(=O)NC(C(=O)NCc3ccccc3Cl)C(C)C)cc2s1` (stereo not drawn), for which the inhibition stood at 2.67%.

`O=C(CSc1nnc(-c2ccccc2)c(-c2ccccc2)n1)N1CCc2ccccc21`: the inhibition is active: 69%.

Take `Cc1cccc(NC(c2cccc(F)c2)c2ccc3ccc(C)nc3c2O)n1` (stereo not drawn): the inhibition is -0.541%.

On to `Cc1ccc(CCNC(=O)c2cc3c(s2)-c2ccccc2OC3)cc1`, for which the inhibition is 3.63%.

For `Cc1ccc(NC(=O)CN2C(=O)CSc3ccc(S(=O)(=O)N(C)C)cc32)cc1C`, the inhibition turned out to be 2.17%.

Turning to `COC(=O)c1cc2occc2n1Cc1ccc(F)cc1Cl`, the inhibition was found to be 15.2%.

For `Cc1ccc(CSC2=Nc3ccccc3C3=NC(CCC(=O)NCCc4ccccc4)C(=O)N23)cc1` (stereo not drawn), the inhibition is -4.91%.

On to `Cc1ccc(-c2nn(CCC(=O)Nc3ccc(Cl)c(Cl)c3)c(=O)c3ccccc23)cc1`, for which the inhibition was -8.02%.

Turning to `COc1ccc(-c2nc(S(=O)(=O)c3ccc(Cl)cc3)c(N3CCCCCC3)o2)cc1`, the inhibition turned out to be 4.45%.

Take `Cc1ccc(C(=O)NCCSc2c(C)[nH]c3ccccc23)cc1C`: the inhibition was -26%.

For the compound `CCOc1cc(C2C(C(N)=O)=C(C)Nc3ncnn32)cc(Br)c1O` (stereo not drawn), the inhibition is -16.8%.

As to `O=C(CCC(=O)c1ccc(F)cc1)Nc1cc(Cl)cc(Cl)c1`, the inhibition was active: 39.1%.

As for `O=C(CC(c1cccs1)N1Cc2ccccc2C1=O)Nc1ccccc1F` (stereo not drawn), the inhibition is -13.8%.

`CC(CNC(=O)c1sc2ncccc2c1-n1cccc1)c1ccccc1` (stereo not drawn): the inhibition is -11.8%.

As to `CC1CCCN(C2=C(Cl)C(=O)N(c3cccc(Cl)c3)C2=O)C1` (stereo not drawn), the inhibition is active: 44.1%.

For `CC1(C)CC(=O)c2cc(C(=O)Nc3ccc(Cl)cc3)c(=O)[nH]c2C1`, the inhibition came to 11.4%.

`O=C(CSc1ccccc1)NNC(=O)c1ccncc1`: the inhibition was active: 57.1%.

Turning to `Cc1nc2scc(C)n2c(=O)c1S(=O)(=O)Nc1ccc(N2CCN(C(=O)C(C)C)CC2)cc1`, the inhibition was -24.4%.

With `Cc1ccc(NC(=O)C2=CC(c3cccs3)=NS(=O)(=O)N2C)cc1`, the inhibition is -18.3%.

For `Nc1nc2nc(-c3ccc(Cl)cc3)cc(C(F)(F)F)n2n1`, the inhibition worked out at 10.4%.

Turning to `Cc1ccc(NC(=O)CSc2nc3c(c(=O)[nH]2)CN(Cc2ccccc2)CC3)cc1Cl`, the inhibition was -15.1%.

In the case of `CC(=O)N1c2ccccc2C(=O)C1N1CCN(c2cccc(C)c2C)CC1` (stereo not drawn), the inhibition came out at 11.5%.

On to `Nc1nonc1-c1nc2ccccc2n1Cc1ccc(Br)cc1`, for which the inhibition amounted to 16.5%.

Consider `COC(=O)c1c(NC(=O)C2c3ccccc3Oc3ccccc32)sc2c1CCC(C)C2` (stereo not drawn), for which the inhibition is -22.2%.

In the case of `COc1ccccc1CCNC(=O)Cc1c(C)c2c(O)cc(C)cc2oc1=O`, the inhibition was 5.27%.

Take `COc1cc(-c2cc3n(C)c(C)c(CCC(=O)Nc4ccc(F)cc4)c(=O)n3n2)cc(OC)c1OC`: the inhibition amounted to 1.3%.

As for `COc1ccc(Cn2c(=O)c3oc4ccccc4c3n(Cc3ccccc3)c2=O)cc1`, the inhibition was determined as 7.53%.

Turning to `CCOC(=O)c1[nH]c(C)c(CCC(=O)NCc2cccc(Cl)c2)c1C`, the inhibition is 2.72%.

`Cc1ccc(OCCSc2nc(-c3cccs3)nc3cc(=O)[nH]n23)cc1Cl`: the inhibition was 4.45%.

Regarding `O=C(CSc1c2c(nc3ccccc13)CCC2)Nc1ccc(F)cc1F`, the inhibition was -0.104%.

As to `CCc1cc(=O)oc2cc(C)c3c(-c4ccc(F)cc4)coc3c12`, the inhibition amounted to 8.16%.

`COc1ccccc1N1CCN(C2CCCN(S(=O)(=O)c3ccc(C)cc3)C2)CC1` (stereo not drawn): the inhibition is active: 66.5%.

Regarding `Cc1ccc(S(=O)(=O)N2CCC(C(=O)Nc3cc(C)ccc3C)CC2)cc1`, the inhibition was found to be 4.68%.

As for `COc1ccccc1-c1c(C(F)(F)F)oc2c(CN3CCCCC3C)c(O)ccc2c1=O` (stereo not drawn), the inhibition came out at 9.45%.

With `Cc1ccccc1CN1C(=O)c2ccccc2Sc2ccc(C(=O)N3CCOCC3)cc21`, the inhibition was determined as 24.5%.

Consider `Cc1cccc(-c2nc(-c3ccc4c(c3)[nH]c(=O)n4C)no2)c1`, for which the inhibition was -2.58%.

As to `S=C(Nc1ccc(Cl)cc1)NC1CCN(Cc2ccccc2)CC1`, the inhibition was active: 69.4%.

Turning to `CCN1C(=O)c2ccccc2S(=O)c2ccc(C(=O)N3CCN(c4ccc(F)cc4)CC3)cc21` (stereo not drawn), the inhibition was -15.2%.
